From the supplement of paper PMC4967469

Legend:
Assay in all cases: Viability of human cancer cell lines after 72 h of drug (GDSC screen)
QL-XII-47 = compound: C=CC(=O)N1CCc2ccc(-n3c(=O)ccc4cnc5ccc(-c6cnn(C)c6)cc5c43)cc21 [QL-XII-47]; details: top dose 10.24 µM; top dose inferred
Procedure: (§1)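 Human cancer cell lines in 384-well plates, medium with 10% serum, drug for 72 h over a 256-fold dose range (nine 2-fold or five 4-fold steps up to the top dose). Adherent lines were fixed and stained with the nucleic acid dye Syto60, suspension lines read with resazurin; signal relative to control wells, capped at 0 and 100%. One two-parameter sigmoid per drug and line, fitted in a mixed model over all curves with the slope shared within a line.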

KIN001-266 = compound: CCN1CCC(n2cc(CNc3cc(Cl)c4ncc(C#N)c(Nc5ccc(F)c(Cl)c5)c4c3)nn2)CC1 [KIN001-266]; details: top dose 20 µM; top dose inferred
Procedure: as §1

BAY 61-3606 = compound: COc1ccc(-c2cc3nccn3c(Nc3ncccc3C(N)=O)n2)cc1OC [BAY 61-3606]; details: top dose 8 µM; top dose inferred
Procedure: as §1

CCT007093 = compound: O=C1/C(=C/c2cccs2)CC/C1=C\c1cccs1 [CCT007093]; details: top dose 6.6 µM; top dose inferred
Procedure: as §1

Cell Line | AUC (QL-XII-47) | IC50 (QL-XII-47) | AUC (KIN001-266) | IC50 (KIN001-266) | AUC (BAY 61-3606) | IC50 (BAY 61-3606) | AUC (CCT007093) | IC50 (CCT007093)
JVM-3 (lymphoid neoplasm, suspension) | 0.874 | 10.2 µM | 0.852 | 15.9 µM | 0.962 | > 8 µM | 0.982 | > 6.6 µM
JiyoyeP-2003 (Burkitt lymphoma, suspension) | 0.675 | 1.84 µM | 0.846 | 12 µM | 0.693 | 1.6 µM | 0.974 | > 6.6 µM
K2 (melanoma, adherent) | 0.926 | > 10.2 µM | 0.96 | > 20 µM | 0.9 | > 8 µM | 0.982 | > 6.6 µM
K5 (thyroid, adherent) | 0.524 | 0.742 µM | 0.854 | 14.7 µM | 0.818 | 4.26 µM | 0.978 | > 6.6 µM
KALS-1 (glioma, adherent) | 0.699 | 2.89 µM | 0.855 | > 20 µM | 0.879 | > 8 µM | 0.965 | > 6.6 µM
KARPAS-45 (lymphoblastic leukaemia, suspension) | 0.559 | 0.9 µM | 0.757 | 5.87 µM | 0.733 | 2.01 µM | 0.978 | > 6.6 µM
KARPAS-299 (anaplastic large cell lymphoma, suspension) | 0.596 | 1.12 µM | 0.876 | 14.2 µM | 0.96 | > 8 µM | 0.991 | > 6.6 µM
KARPAS-422 (B-cell lymphoma, suspension) | 0.898 | > 10.2 µM | 0.875 | 19.3 µM | 0.763 | 2.85 µM | 0.985 | > 6.6 µM
KARPAS-620 (haematopoietic neoplasm, suspension) | 0.539 | 0.804 µM | 0.869 | 14.1 µM | 0.759 | 2.43 µM | 0.991 | > 6.6 µM
KCL-22 (chronic myeloid leukaemia, suspension) | 0.514 | 0.694 µM | 0.867 | 13.4 µM | 0.77 | 2.57 µM | 0.985 | > 6.6 µM
KE-37 (lymphoblastic leukaemia, suspension) | 0.409 | 0.384 µM | 0.875 | 12.1 µM | 0.601 | 0.884 µM | 0.973 | > 6.6 µM
KELLY (neuroblastoma, adherent) | 0.989 | > 10.2 µM | 0.746 | 5.86 µM | 0.87 | 6.32 µM | 0.982 | > 6.6 µM
KG-1 (acute myeloid leukaemia, suspension) | 0.833 | 5.63 µM | 0.874 | 15.9 µM | 0.792 | 3.21 µM | 0.99 | > 6.6 µM
KGN (ovary, adherent) | 0.492 | 0.607 µM | 0.865 | > 20 µM | 0.684 | 1.84 µM | 0.95 | > 6.6 µM
KINGS-1 (glioma, adherent) | 0.869 | > 10.2 µM | 0.86 | > 20 µM | 0.966 | > 8 µM | 0.931 | > 6.6 µM
KLE (endometrium, adherent) | 0.702 | 3.3 µM | 0.879 | > 20 µM | 0.917 | > 8 µM | 0.956 | > 6.6 µM
KM12 (large intestine, adherent) | 0.761 | 3.93 µM | 0.858 | 18.8 µM | 0.737 | 2.54 µM | 0.961 | > 6.6 µM
KM-H2 (Hodgkin lymphoma, suspension) | 0.853 | 6.16 µM | 0.908 | > 20 µM | 0.94 | > 8 µM | 0.974 | > 6.6 µM
KMH-2 (thyroid, adherent) | 0.633 | 1.43 µM | 0.972 | > 20 µM | 0.53 | 0.599 µM | 0.99 | > 6.6 µM
KMOE-2 (acute myeloid leukaemia, suspension) | 0.706 | 2.26 µM | 0.872 | 15.5 µM | 0.788 | 3.11 µM | 0.988 | > 6.6 µM
KMRC-1 (kidney, adherent) | 0.981 | > 10.2 µM | 0.814 | 11.7 µM | 0.958 | > 8 µM | 0.971 | > 6.6 µM
KMS-12-BM (myeloma, suspension) | 0.85 | 5.79 µM | 0.9 | 17.7 µM | 0.913 | > 8 µM | 0.981 | > 6.6 µM
KNS-42 (glioma, adherent) | 0.899 | > 10.2 µM | 0.847 | 19.2 µM | 0.875 | > 8 µM | 0.967 | > 6.6 µM
KNS-81-FD (glioma, adherent) | 0.933 | > 10.2 µM | 0.855 | > 20 µM | 0.919 | > 8 µM | 0.963 | > 6.6 µM
KON (head and neck, adherent) | 0.982 | > 10.2 µM | 0.968 | > 20 µM | 0.743 | 2.43 µM | 0.986 | > 6.6 µM
KOPN-8 (B-cell leukaemia, suspension) | 0.573 | 0.983 µM | 0.802 | 8.25 µM | 0.647 | 1.2 µM | 0.99 | > 6.6 µM

A lower IC50 marks a more sensitive line; a fit beyond the top or the lowest dose is shown as a bound at that dose. The AUC spans the tested range (256-fold, ending at the top dose) of the same fit; it is 1 without any effect and falls as sensitivity rises. Any top dose called inferred was calculated from the reported fits.
